The structures appear in SMILES notation. Among all 310,000 compounds or so, about 14,000 (4.5%) showed an effect of 50% or more. The effect is printed as a negative number. The list shows a part of the results.

Experimental findings from PMC4336329 (PLoS ONE, 2015) are described below.
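Further: peak tail current of the secondary pulse compared with the same well before compound.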

Chain of human ether-à-go-go-related gene (hERG) potassium channel (Q12809 whole entry, looked up): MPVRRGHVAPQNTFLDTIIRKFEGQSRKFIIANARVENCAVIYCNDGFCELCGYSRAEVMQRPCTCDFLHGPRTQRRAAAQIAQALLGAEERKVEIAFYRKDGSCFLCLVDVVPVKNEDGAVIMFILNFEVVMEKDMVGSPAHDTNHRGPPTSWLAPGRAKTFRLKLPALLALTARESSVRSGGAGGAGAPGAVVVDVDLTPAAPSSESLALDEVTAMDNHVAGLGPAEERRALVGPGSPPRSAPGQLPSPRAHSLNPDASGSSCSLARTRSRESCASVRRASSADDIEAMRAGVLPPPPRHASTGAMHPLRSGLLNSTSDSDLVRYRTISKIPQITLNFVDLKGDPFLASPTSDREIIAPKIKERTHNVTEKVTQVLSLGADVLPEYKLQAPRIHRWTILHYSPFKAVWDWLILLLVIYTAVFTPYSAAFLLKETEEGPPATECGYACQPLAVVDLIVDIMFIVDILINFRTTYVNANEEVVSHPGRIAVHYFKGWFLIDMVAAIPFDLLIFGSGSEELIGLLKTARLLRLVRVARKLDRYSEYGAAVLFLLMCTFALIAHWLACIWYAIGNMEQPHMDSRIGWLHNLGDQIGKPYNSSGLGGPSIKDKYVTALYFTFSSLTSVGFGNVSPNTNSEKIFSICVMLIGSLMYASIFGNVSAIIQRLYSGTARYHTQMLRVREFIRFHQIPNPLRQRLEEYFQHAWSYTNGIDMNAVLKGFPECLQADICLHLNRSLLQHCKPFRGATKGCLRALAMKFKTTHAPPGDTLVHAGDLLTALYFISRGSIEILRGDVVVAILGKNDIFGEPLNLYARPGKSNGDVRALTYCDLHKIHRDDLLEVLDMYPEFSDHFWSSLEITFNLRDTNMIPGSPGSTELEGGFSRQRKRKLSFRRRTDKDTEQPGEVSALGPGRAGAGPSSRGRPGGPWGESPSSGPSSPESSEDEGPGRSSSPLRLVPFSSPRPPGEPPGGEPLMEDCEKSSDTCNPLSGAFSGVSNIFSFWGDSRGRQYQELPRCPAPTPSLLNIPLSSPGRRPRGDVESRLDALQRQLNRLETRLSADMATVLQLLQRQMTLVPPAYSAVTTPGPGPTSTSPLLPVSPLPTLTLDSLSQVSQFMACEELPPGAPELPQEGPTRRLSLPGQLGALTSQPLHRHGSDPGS

The experiment has as its target human ether-à-go-go-related gene (hERG) potassium channel (human, UniProt Q12809). Kind of experiment: primary screen, population patch clamp on CHO cells stably expressing hERG.
As for `O=C(NCCCN1CCCCC1)c1ccc2c(=O)n(CCc3ccccc3)c(=O)[nH]c2c1`, the “hERG current change (%, negative = inhibition) at 10uM” value was -23.4%. As for `O=C(NCCCN1CCCC1=O)c1cccc(NS(=O)(=O)c2ccc(Br)cc2)c1`, the “hERG current change (%, negative = inhibition) at 10uM” value is given as -30.1%. The result for `COc1cc2c(cc1OC)C1=C(C#N)CCC(=NC(=O)c3ccco3)N1CC2` reads 8.96%.

With `COc1cccc(C(=O)NCC(=O)N/N=C/c2cccc(OC(=O)c3ccc([N+](=O)[O-])cc3)c2)c1`, the “hERG current change (%, negative = inhibition) at 10uM” value was -10.4%. For the compound `CCOC(=O)C1CCN(S(=O)(=O)c2ccc(NC(C)=O)c(Cl)c2)CC1`, the “hERG current change (%, negative = inhibition) at 10uM” value was -30.4%. In the case of `COc1cc2c(C(=O)NCc3ccccn3)cn(C)c(=O)c2cc1OC`, the “hERG current change (%, negative = inhibition) at 10uM” value amounted to 15.2%. For `CC(C)(C)NS(=O)(=O)c1ccc(OCC(=O)NCC2CCCO2)cc1` (stereo not drawn), the “hERG current change (%, negative = inhibition) at 10uM” value amounted to 2.21%.

As to `Cc1ccc(S(=O)(=O)N2c3ccccc3OCC2c2ccccc2)cc1` (stereo not drawn), the “hERG current change (%, negative = inhibition) at 10uM” value came to 23%. `CC(=O)N1CCCC(C(=O)c2ccc3c4c(cccc24)CC3)C1` (stereo not drawn): the “hERG current change (%, negative = inhibition) at 10uM” value is reported as -8.18%.

For `Cc1ccc(OCC(=O)Nc2ccccc2N2CCOCC2)c(C)c1`, the “hERG current change (%, negative = inhibition) at 10uM” value is -3.56%. The same measure for `CS(=O)(=O)N(CC(=O)NC1CC1)c1cccc(F)c1`: 8.92%; for `COCCNC(=O)C(C)N1c2cccc3cccc(c23)S1(=O)=O` (stereo not drawn): 11.7%.

As for `NC(=O)c1ccc(NC(=O)Cc2cccs2)cc1`, the “hERG current change (%, negative = inhibition) at 10uM” value was determined as 15.1%. The result for `COC(=O)C(C)Sc1ccc2nnc(-c3cccc(F)c3)n2n1` (stereo not drawn) reads -58%.

Take `CN(C(=O)c1cccc(C(=O)N(C)c2ccccc2)c1)c1ccccc1`: the “hERG current change (%, negative = inhibition) at 10uM” value stood at 12.9%. With `COc1ccc(NCCNc2ccc(OC)cc2)cc1`, the “hERG current change (%, negative = inhibition) at 10uM” value was -5.95%.

For the compound `O=C(O)c1ccc(OCC(O)Cn2c3ccccc3c3ccccc32)cc1` (stereo not drawn), the “hERG current change (%, negative = inhibition) at 10uM” value was -18.5%.

For the compound `CCOC(=O)c1cc2occc2n1CCCN1C(=O)c2ccccc2C1=O`, the “hERG current change (%, negative = inhibition) at 10uM” value is listed as -23.5%. For the compound `CC(Oc1ccc(Cl)cc1Cl)C(=O)Nc1ccc(OCC(=O)O)cc1` (stereo not drawn), the “hERG current change (%, negative = inhibition) at 10uM” value is on record as 34.2%. In the case of `CN1CCN(C(=O)CCc2nnc3ccc(N4CCC5(CC4)OCCO5)nn23)CC1`, the “hERG current change (%, negative = inhibition) at 10uM” value turned out to be 19.4%. The same measure for `O=C1CC(NCc2ccc(F)cc2)C(=O)N1c1ccccc1` (stereo not drawn): 4.39%; for `COc1cccc(-n2ccnc2SCC(=O)Nc2cc(C)on2)c1`: 14.1%. With `O=C(Cc1c(O)c2ccccc2[nH]c1=O)NCc1ccc(F)cc1`, the “hERG current change (%, negative = inhibition) at 10uM” value came out at 12.3%. Consider `CC(C)C(=O)Nc1nnc(SCc2cccc(F)c2)s1`, for which the “hERG current change (%, negative = inhibition) at 10uM” value was -8.88%. Turning to `O=C(CN1CCCc2ccccc21)N/N=C/c1ccc(O)cc1O`, the “hERG current change (%, negative = inhibition) at 10uM” value is listed as -29.1%. `Cl.N=C(c1cccc([N+](=O)[O-])c1)N1CCCCC1`: the “hERG current change (%, negative = inhibition) at 10uM” value is given as 1.62%. Regarding `Cc1ccc(-c2nc(S(=O)(=O)c3ccc(F)cc3)c(SCC(=O)NCC3CCCO3)o2)cc1` (stereo not drawn), the “hERG current change (%, negative = inhibition) at 10uM” value worked out at 6.95%. Regarding `CCOC(=O)N1CCN(C(=O)c2ccc(Cn3c(=S)[nH]c4ccc(Br)cc4c3=O)cc2)CC1`, the “hERG current change (%, negative = inhibition) at 10uM” value is 13.3%. For `CSCCC(NC(=O)COc1ccccc1)C(=O)N1CCOCC1` (stereo not drawn), the “hERG current change (%, negative = inhibition) at 10uM” value is -9.88%. Consider `CC(C)Oc1c(Br)cc(Br)cc1/C=N/NC(N)=S`, for which the “hERG current change (%, negative = inhibition) at 10uM” value is 13.1%.

In the case of `CCCCn1nc(C(=O)Oc2ccc3c(C)cc(=O)oc3c2)c2ccccc2c1=O`, the “hERG current change (%, negative = inhibition) at 10uM” value is -21.4%. The same measure for `O=C(NCCCn1ccnc1)C(Cl)(Cl)Cl`: -0.517%. The result for `O=C(CN(C(=O)CCC(=O)Nc1nccs1)c1cccc(F)c1)NCC1CCCO1` (stereo not drawn) reads -1.21%; that for `COc1ccc(NC(=O)c2ccc(NC(=O)COC(=O)c3cnc(C)cn3)cc2)cc1`, -2.52%; that for `O=C(OCc1cnc(Cl)s1)c1ccccc1Cl`, -14%. For the compound `CN(C)C(=S)Nc1ccc([N+](=O)[O-])cc1`, the “hERG current change (%, negative = inhibition) at 10uM” value was -0.053%. Turning to `Cc1ccc2c(c1)CC(C)N2S(=O)(=O)c1nnc(NC(=O)CC(C)C)s1` (stereo not drawn), the “hERG current change (%, negative = inhibition) at 10uM” value was 34.1%. Turning to `Cc1ccc(S(=O)(=O)N2[C@@H](c3cccc(Cl)c3)C(C(=O)O)=CC[C@H]2c2ccc3c(c2)OCO3)cc1`, the “hERG current change (%, negative = inhibition) at 10uM” value is on record as 15.3%. For the compound `CCn1c(SCC(=O)Nc2cc(OC)ccc2OC)nc2c(c1=O)SCC2`, the “hERG current change (%, negative = inhibition) at 10uM” value is listed as -14.4%. The same measure for `Nc1ccc2oc3ccccc3c2c1`: -10.3%; for `CC1(C)CC(=O)C(CC(=O)Nc2cc(C(F)(F)F)ccc2Cl)C(=O)C1`: 14.8%; for `O=C(NCCCn1ccnc1)c1cc(S(=O)(=O)N2CCOCC2)c(Cl)cc1Cl`: 11.8%. The same measure for `CNC(=O)CSCc1cnn(-c2ccccc2)c1-n1cccc1`: -4.68%; for `COc1ccnc(-n2cccc2/C=N/O)c1C#N`: -13.9%.

With `CC(C)C(=O)Nc1ccc(-c2csc(-c3ccccc3)n2)cc1`, the “hERG current change (%, negative = inhibition) at 10uM” value is recorded as 1.32%.
